From ChEMBL document CHEMBL4888484, “Replenishing the malaria drug discovery pipeline: Screening and hit evaluation of the MMV Hit Generation Library 1 (HGL1) against asexual blood stage Plasmodium falciparum ,using a nano luciferase reporter read-out” (2022)
Out of some 150,000 compounds screened, about 540 (0.36%) showed an effect of 50% or more. The list shows a part of the results.

Each compound was assayed on Plasmodium falciparum (assay: Primary screen in NF54 nanoGlo assay, in single point, at 2uM, 72h; a lower Z score goes with more inhibition). Details: timepoint 72 hour.
Format: functional, Erythrocyte

Row | Structure (SMILES) | % Inhibition [%] | Z score
1 | CCc1cccc(NC(=O)N2CCN(CCOC)[C@@H]3CS(=O)(=O)C[C@@H]32)c1 | -14 | 1.41
2 | CCn1cc(C(=O)N2CCC[C@@]3(CCC(=O)N(Cc4cccnc4)C3)C2)cn1 | -12 | 1.31
3 | O=C(C[C@H]1Cn2ncc(-c3ccccc3)c2NC1=O)NCc1ccco1 | -13 | 1.18
4 | Cn1ccnc1CN1CC[C@@]2(CCCN(Cc3ccccc3F)C2=O)C1 | 6 | -0.72
5 | CCN(CC)C(=O)c1cc(N)c(OC)c(OC)c1 | -8 | 1.27
6 | CCCOCCN1C[C@@H]2CC[C@H]1CN(C(=O)c1ccccc1)C2 | 1 | -0.13
7 | CCOc1ccccc1NC(=O)[C@H](C)N1CC(OCCCOc2ccccc2)C1 | 8 | -1.33
8 | CC(C)c1nccc(C(=O)N2CCc3n[nH]cc3C2)n1 | 3 | -0.53
9 | O=C(CCn1cccn1)N1CCc2[nH]ncc2C1 | -5 | 0.94
10 | C[C@@H](Cn1cc(Cl)cn1)/C(N)=N\O | -44 | 5.14
11 | Cc1nnc(CN(CC(=O)N2CCc3ccccc3C2)C(C)(C)C)o1 | 9 | -1.16
12 | COc1nccnc1N1CCC2(CC1)CC(=O)N(Cc1ccc(F)c(F)c1)C2 | -18 | 3.62
13 | O=C(NCCn1cnc2cc(C(=O)N3CCCC3)ccc21)Nc1ccc(Br)cc1 | -12 | 1.53
14 | C=C(C)CNC(=O)N[C@@H](COC)c1ccc(F)c(F)c1 | 6 | -0.77
15 | Cc1ncoc1C(=O)N1CC[C@@]2(CCCN(CC3CCCCC3)C2=O)C1 | -4 | 0.85
16 | CCN(Cc1cc2cc(OC)ccc2nc1O)[C@H]1CCS(=O)(=O)C1 | -8 | 1.13
17 | CC(NC(C)c1ccco1)c1cnn(C(C)C)c1 (stereo not drawn) | -3 | 0.32
18 | COc1cccc(OC)c1C(=O)NCc1c2c(c(O)c3c1OCO3)C(=O)N(C)CC2 | -13 | 1.76
19 | C[C@@H](c1ccccc1)n1c(NC(=O)c2cccc(Br)c2)c(S(=O)(=O)c2ccccc2)c2nc3ccccc3nc21 | 1 | -0.19
20 | CCOC(=O)CN(C)C(=O)c1ccc(NC)cc1Cl | -15 | 2.61
21 | N[C@H]1CCCN(C(=O)Nc2ccccc2Oc2ccccc2)CC1 | 8 | -1.07

Row | Structure (SMILES) | % Inhibition [%] | Z score
22 | CNC(=O)Cc1nc(Cc2ccccc2Br)cs1 | -18 | 2.85
23 | O=C(Nc1nc(-c2ccc3c(c2)OCCO3)cs1)c1cccc(S(=O)(=O)N2CCCc3ccccc32)c1 | 6 | -0.81
24 | Cc1ccc(Oc2nc(N3CCN(C)CC3)nc3c2CN(S(=O)(=O)c2cccc(C)c2)CC3)cc1 | -7 | 0.77
25 | Cc1ccc2[nH]cc(-c3nc4c([nH]3)CCN[C@H]4C(=O)O)c2c1 | -4 | 0.5
26 | O=C(NCCS(=O)(=O)N1CCCC1)c1ccc2cccc(F)c2n1 | 0 | -0.04
27 | Nc1nc2c(s1)C[C@@H](NC(=O)C[C@@H]1CCCC[C@H]1O)CC2 | 1 | -0.13
28 | CC(C)C(=O)N1CCC(c2nc(Cc3cc(F)cc(F)c3)no2)CC1 | -8 | 0.96
29 | O=C(NC1CC1C1CCCCC1)N1CCS(=O)(=O)CC1 (stereo not drawn) | 77 | -9.17
30 | Cc1cc(C(=O)NC[C@H]2CCN(Cc3nc4ccccc4[nH]3)C2)[nH]n1 | -4 | 0.63
31 | O=C(c1ccc(Cl)cc1Cl)N(Cc1ccsc1)Cc1ccccn1 | 18 | -2.66
32 | CCCN(CC1CC1)C(=O)Nc1ccc2c(c1)OCO2 | 6 | -1.16
33 | CC(Cc1ccc2ccccc2c1)NC(=O)NC1CCN(C)C1=O (stereo not drawn) | -6 | 0.93
34 | CCc1nc(C)c(CN2CCC[C@H](N(C)CCc3ccc(OC)c(OC)c3)C2)[nH]1 | -18 | 1.9
35 | CC1CN(C(=O)CN(C)c2cnccn2)CC(C)O1 (stereo not drawn) | -5 | 0.83
36 | CCOc1cc([C@H]2Nc3ccccc3C(=O)N2c2ccc(F)cc2)ccc1OCc1ccccc1Cl | 5 | -0.77
37 | O=C(NCc1nnnn1C1CC1)N1CCC(CCc2ccc(F)cc2F)CC1 | -7 | 0.97
38 | Cc1ccsc1CCC(=O)NC[C@H]1COc2ccccc21 | -5 | 0.78
39 | O=S(=O)(Nc1ccc(N2CCOCC2)cc1)c1ccc(-c2nnc(C3CCC3)o2)o1 | 8 | -1.1
40 | Cc1nnc(CN(C)C[C@H](C)Oc2ccc(Cl)c(Cl)c2)n1C | -4 | 0.53
41 | CC(C)Cn1cncc1CNC(=O)CNC(=O)N(C)C | -14 | 1.59
42 | O=C1C(=O)N(CN2CCC[C@H]2c2ccccc2)c2ccccc21 | 13 | -1.71

Row | Structure (SMILES) | % Inhibition [%] | Z score
43 | CCO[C@H]1CCN(C(=O)Cc2ccc3cn[nH]c3c2)C1 | -4 | 0.76
44 | Cc1cc(C)cc([C@H]2CCN(S(=O)(=O)c3c(Cl)cnn3C)C2)c1 | -8 | 1.2
45 | COCCN(CC(=O)N1N=C(c2cccn2C)C[C@H]1c1ccc(C)cc1)C(=O)c1ccc(OC)cc1 | -11 | 1.07
46 | Cc1ccc(C2=NOC(CNC(=O)N3CCC[C@H]3CO)C2)cc1C (stereo partly drawn) | 4 | -0.43
47 | CC(C)C[C@H]1CCN(C(=O)Nc2ccncc2F)C1 | -8 | 1.2
48 | COc1ccc(F)cc1CC(=O)N1CCCC[C@@H]1CN1CCCC1=O | 0 | 0.01
49 | CC(=O)NC(C)(C)C(N)=NOCc1c(Cl)cccc1Cl | -8 | 1.2
50 | CCc1nnc(CNS(=O)(=O)c2cccc(C(=O)NC3CCC3)c2)s1 | -10 | 1.79
51 | CCCn1c(C)cnc1CC1CCN(C(=O)c2ccco2)CC1 | -8 | 1.22
52 | C[C@H](NS(=O)(=O)c1cccnc1)c1ccccn1 | -7 | 1.4
53 | CC(C)[C@H]1CCO[C@H]1C(=O)NCC(=O)N1Cc2ccccc2C1 | -3 | 0.28
54 | Cc1nnc(N(C)C[C@H]2CCCCN2C)s1 | -8 | 1.43
55 | Cc1c[nH]nc1C(=O)N[C@@](C)(CO)c1cccc(Br)c1 | -1 | 0.2
56 | O=S(=O)(NC1(CN2CCCC2)CCCCC1)c1cccnc1 | -11 | 1.82
57 | F[C@@H]1CN[C@H](CNc2nc(-c3ccccc3)nc3ccccc23)C1 | -12 | 2.11
58 | CC(=O)N1CCC(CN(C)C(=O)C(C)Oc2cccc(C)c2)C1 (stereo not drawn) | -14 | 1.78
59 | Cc1ccccc1-c1noc(C2CCN(C(=O)c3cc4ccccc4[nH]3)CC2)n1 | 1 | -0.08
60 | Cc1c(NC(=O)COC(=O)c2cc(-c3cccc4ccccc34)nc3ccccc23)c(=O)n(-c2ccccc2)n1C | -9 | 1.4
61 | NC(=O)C1CCN(c2nc3cccnc3s2)CC1 | -7 | 0.83
62 | CC(N(C)CC(=O)NC(C)(C#N)C1CC1)C(C)(C)C (stereo not drawn) | 3 | -0.36
63 | Cc1c(NS(C)(=O)=O)cccc1C(N)=O | -11 | 0.99

Row | Structure (SMILES) | % Inhibition [%] | Z score
64 | CCN([C@H]1CCN(c2ccccc2)C1=O)S(C)(=O)=O | -4 | 0.48
65 | O=C(Nc1nnc(-c2cccnc2)o1)c1ccc(Cl)cc1Cl | 3 | -0.56
66 | COc1ccc(CN2C[C@@H](C(=O)Nc3ccc4nc(C)[nH]c4c3)CC2=O)cc1OC | 2 | -0.24
67 | O=C(NCCCN1CCC[C@H](O)C1)c1ccc(-c2ccc3c(c2)OCO3)cc1 | -3 | 0.52
68 | c1cnc2[nH]cc(-c3csc(CN4CCOCC4)n3)c2c1 | -8 | 1.18
69 | Cc1noc(C)c1S(=O)(=O)N1CC(C)OCC1C (stereo not drawn) | -3 | 0.43
70 | O=C(N[C@@H]1CCCC(F)(F)[C@H]1O)C1(O)CCC1 | 1 | -0.09
71 | CCOC(=O)Cn1ncc2ccc(N)cc21 | -3 | 0.56
72 | Cc1csc(CNC(=O)Cc2cnc3c(C)cccn23)n1 | -18 | 1.92
73 | NC(=O)C1CCCN(C(=O)C2Cc3ccccc3C(=O)O2)C1 (stereo not drawn) | -8 | 1.4
74 | CC(C)c1nc2cc(CCC(=O)NC3CCCC3)ccc2[nH]1 | -13 | 1.83
75 | N[C@@H]1C[C@@H]2CC(c3nc(C4(c5ccccc5F)CC4)no3)C[C@@H]21 (stereo partly drawn) | -1 | 0.16
76 | Cc1ncc(S(=O)(=O)NCCN2CC3CCC(C2)O3)s1 | 30 | -3.39
77 | Cc1ccc(CNC(=O)[C@H]2CCN(C)C(=O)C2)c2ccccc12 | 8 | -1.47
78 | CCOC(=O)CC(=O)Nc1cc2c(cc1N1CCCC1)n(C)c(=O)n2C | -8 | 1.56
79 | Cc1nn(C)cc1C(=O)NC[C@H]1CCCN(Cc2ccnn2C)C1 | 6 | -1.18
80 | CCOc1ccc(CNc2nc(NCc3ccc(OCC)cc3)n(C(=O)COc3ccccc3)n2)cc1 | -2 | 0.25
81 | C=CCC(CC=C)C(=O)N1CC(O)(CC)C1 | -7 | 0.77
82 | Cc1ccc(CNC(=O)c2ccc3c(c2)N(C)[C@H]2CCCN2C3=O)cc1C | -6 | 0.8
83 | CCCNC(=O)N1CC[C@H](CCc2noc(C3CC3)n2)C1 | 5 | -0.75
84 | O=S(=O)(c1cccc(C(F)(F)F)c1)N1CCCN(c2nc3cccnc3s2)CC1 | -11 | 1.15
